Source: PubChem BioAssay (NCATS)
Inconclusive means that the source gave no clear call. Such entries were picked first, then a sample of the others. Potencies of inconclusive entries are doubtful fits and often do not repeat. Calls of active or inactive are those of the source. The call rests on the fitted dose curve; in most records, active means well fitted inhibition curve with a large enough effect; inconclusive means small, poorly fitted or top-dose-only effect, or another doubt; inactive means no such curve, though single readings can be large or run the other way.

These compounds were tested against Vitamin D3 receptor (Homo sapiens) (UniProt P11473) (assay: qHTS for Inhibitors of the vitamin D receptor (VDR): Hit Validation using a Beta-Lactamase Assay (AID 602202)). Conditions: VDR beta-lactamase reporter cells, FRET ratio, cells co-treated with VDR agonist LG190178; series mostly up to 46.1 µM.
Procedure, shortened: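 Stably transfected HEK293 cells express a VDR–GAL4 DNA-binding-domain fusion driving a UAS beta-lactamase reporter, stimulated by agonist LG190178. Compounds were added 4 h after plating and incubated 18 h. A FRET beta-lactam substrate was then added for 2 h and cleaved substrate emission read at 447 nm.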
Potency means the concentration at half of the fitted maximal effect; tags describe the fitted curve by direction and shape.

Chain of UniProt P11473 (P11473 whole entry, looked up, the tested form may be a part): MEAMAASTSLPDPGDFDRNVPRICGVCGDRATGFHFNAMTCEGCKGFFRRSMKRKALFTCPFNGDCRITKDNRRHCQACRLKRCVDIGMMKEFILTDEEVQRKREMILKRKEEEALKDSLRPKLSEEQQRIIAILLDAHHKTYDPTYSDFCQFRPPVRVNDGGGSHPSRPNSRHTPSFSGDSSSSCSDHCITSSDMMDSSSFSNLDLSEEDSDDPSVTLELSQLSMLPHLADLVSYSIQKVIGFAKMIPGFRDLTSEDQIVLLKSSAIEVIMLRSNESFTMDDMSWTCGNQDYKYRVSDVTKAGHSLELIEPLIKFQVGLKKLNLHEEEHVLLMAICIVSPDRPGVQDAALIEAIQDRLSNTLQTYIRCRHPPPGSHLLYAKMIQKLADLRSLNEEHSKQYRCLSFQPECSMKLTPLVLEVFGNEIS

Potency, inconclusive:
CCC(=O)N(CC)C1=C(O)c2ccccc2C(=O)C1=O 25.9 µM [inhibitor, single point]
O=C(/C=C/c1cc(Br)ccc1O)c1ccco1 29.1 µM [inhibitor, single point]
Cc1cc(N2CCOCC2)ccc1/C=C\[N+](=O)[O-] 29.1 µM [inhibitor, single point]
O=C(/C=C/c1cccc(Cl)c1)c1nc2ccccc2[nH]1 29.1 µM [inhibitor, single point]
COc1ccc(CN2[C@@H](CC(C)=O)c3ccc(/C=C/C(C)=O)cc3S2(=O)=O)cc1 29.1 µM [inhibitor, single point]
Cc1ccccc1CS(=O)(=O)c1nnc([C@H](CC(C)C)NC(=O)OC(C)(C)C)o1 29.1 µM [inhibitor, single point]
COc1cc(/C=C/C(=O)c2ccc(F)cc2)cc(OC)c1OC 20.6 µM [inhibitor, single point]
CC(C)CCC[C@@H](C)[C@@H]1CC[C@H]2C3=CC=C4CC(O)CC[C@]4(C)[C@H]3CC[C@@]21C (stereo not given in full) 32.6 µM [inhibitor, single point]
Cc1ccc(NC(=O)c2nc(S(=O)(=O)Cc3ccccc3)ncc2Cl)cc1 16.4 µM [inhibitor, single point]
N#Cc1ccc(/C=C/C(=O)c2cccnc2)cc1 29.1 µM [inhibitor, single point]
CCOc1cc(/C=C\[N+](=O)[O-])ccc1OCC(=O)N1CCOCC1 29.1 µM [inhibitor, single point]
Cc1ccccc1CS(=O)(=O)c1nnc([C@H](Cc2ccccc2)NC(=O)OC(C)(C)C)o1 18.4 µM [inhibitor, single point]
O=c1c(Cl)c(Cl)cnn1Cc1nnc(-c2ccc(Cl)cc2)o1 18.4 µM [inhibitor, single point]
O=C1ON=C(c2ccccc2)/C1=C/c1ccc(O)cc1 29.1 µM [inhibitor, single point]
Cc1ccc(C(C[N+](=O)[O-])Sc2ccc(N)cc2)cc1 (stereo not given) 29.1 µM [inhibitor, single point]
O=[N+]([O-])c1c(NCCO)cc(Sc2nc3ccccc3s2)c2nonc12 20.6 µM [inhibitor, single point]
CCOC(=O)CSC1=NC(=O)/C(=C\c2ccc(Cl)cc2)S1 29.1 µM [inhibitor, single point]
O=C(CCN1CCc2ccccc2C(O)(c2ccccc2)C1)c1ccc2c(c1)OCCO2 (stereo not given) 29.1 µM [inhibitor, single point]
CCOC(=O)N1CCN(CCC(=O)c2ccc(Cl)cc2)CC1 29.1 µM [inhibitor, single point]
CCOC(=O)CSC1=NC(=O)/C(=C\c2ccc(OC(C)=O)cc2)S1 29.1 µM [inhibitor, single point]
CN(C)c1ccc(-n2cccc2/C=C/[N+](=O)[O-])cc1 29.1 µM [inhibitor, single point]
O=C(/C=C/c1ccc(F)cc1)c1ccccc1Br 23.1 µM [inhibitor, single point]
CC(C)c1nnc(NC(=O)CCS(=O)(=O)c2nc(-c3cccs3)cc(C(F)(F)F)n2)s1 29.1 µM [inhibitor, single point]
Cc1ccc(C(=O)c2c(C)oc3c2C(=O)C(=O)c2ccccc2-3)cc1 20.6 µM [inhibitor, single point]

Potency, inactive:
O=C(/C=C/c1ccc(Cl)cc1Cl)c1cccnc1
COc1ccc(OC)c(-c2c3cc(O)c(=O)cc-3oc3cc(O)c(O)cc23)c1
CCN(CC)S(=O)(=O)c1ccc(O)c(NS(=O)(=O)c2ccccc2F)c1
COc1cccc(/C=C/c2[nH]c(=O)[nH]c(=O)c2[N+](=O)[O-])c1O
CCOc1ccc(C(Nc2cccnc2)c2cc(Cl)c3cccnc3c2O)cc1 (stereo not given)
O=[S@]1Oc2ccccc2-c2ccccc21
O=C(/C=C/c1ccncc1)c1ccc2c(c1)OCCO2

Potency, active:
CC1(C)CC(=O)C2=C(C1)OC1=C(C(=O)CC(C)(C)C1)C2c1ccc(O)cc1O 16.4 µM
CNC(=O)c1nnsc1S(=O)c1ccc(Cl)cc1 (stereo not given) 16.4 µM
Cc1cccc2cc3c(nc12)SC(=NCC1CCCO1)N(Cc1ccco1)C3 (stereo not given) 20.6 µM
CCN1C/C(=C/c2cccc([N+](=O)[O-])c2)C(=O)/C(=C/c2cccc([N+](=O)[O-])c2)C1 2.06 µM
CCCC(=O)OCCNc1cc(Sc2nccn2C)c2nonc2c1[N+](=O)[O-] 16.4 µM
Cc1cc(C(Br)(Br)Br)nc2ccccc12 13 µM
O=C(/C(=C/c1ccc(Cl)cc1)c1nc2ccccc2[nH]1)c1cccs1 6.51 µM
CS(=O)(=O)c1ccc(S(=O)CC(=O)Oc2ccc(Cl)cc2)c([N+](=O)[O-])c1 (stereo not given) 18.4 µM
CSc1nnc(NC(=O)c2nc(S(=O)(=O)Cc3ccccc3)ncc2Cl)s1 5.17 µM
